Measurements: PubChem BioAssay AID652104 (National Center for Advancing Translational Sciences (NCATS), 2013)
Where “and” joins values, the source holds several entries; their conditions need not be identical. Equal values may be shown once. In all, about 410,000 compounds went through this assay and about 7,200 (1.8%) were called active. The shares of active, inactive and inconclusive entries below differ from those in the screen. Calls follow the shape of the dose curve; as a rule, active = well fitted activation curve with a large enough effect; inconclusive = small, poorly fitted or top-dose-only effect, or another doubt; inactive = no such curve, though single readings can be large or run the other way. Potencies beside an inconclusive call are fits to weak or partial responses and may not hold up.

assay: qHTS of TDP-43 Inhibitors; details: TDP-43 expressing yeast growth rescue, BacTiter-Glo, 24 h; growth rescue (activation): at 46.1 µM (top of the series) unless noted; also: nearly all actives have a fitted effect of over 50% in size; as to growth rescue (activation): % of control where 0% means no effect
How it was run: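 Galactose-induced TDP-43 yeast, OD600=0.02, compound pinned; 24 hr, 30 deg C; BacTiter-Glo luminescence for growth. Inhibitors of TDP-43 toxicity read as activators.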
Potency is read from the fitted curve at half-maximal effect; tags tell the direction and shape of the fitted curve.

Potency, inactive:
COc1ccc(-c2ccc(C(=O)N3CCN(C)CC3)c3occc23)c(C)c1, CCOC(=O)c1ccc(N2CCN(c3cccc(Cl)c3)CC2)c(NC(=O)Nc2ccc(OC)cc2OC)c1, O=[N+]([O-])c1cccc(CNc2ccc3c(c2)CCC3)c1, O=C(COC(=O)c1cccnc1Cl)Nc1ncc(Cl)cc1Cl, COc1ccccc1N1CCN(c2ccc(=O)n(CC(=O)Nc3ccc(F)c(F)c3)n2)CC1, CC(=O)N/N=C/c1c(C)[nH]n(-c2ccccc2)c1=O, Cc1ccc(N(C(=O)COc2ccccc2C)S(=O)(=O)c2ccc(Cl)cc2)cc1, O=C(CCCn1ncn2c(cc3occc32)c1=O)N1CCc2ccccc2C1, Cc1nn(-c2ccccc2)c2sc(C(=O)OCc3nnc(-c4ccccc4)o3)cc12, Cc1ccc(S(=O)(=O)n2nc(-n3c(C)ccc3C)c3c(F)cccc32)c2ccccc12, CC(C)(C)c1ccc(/C=N/NC(=S)NCc2ccccc2)cc1, O=C(CSc1ncnc2sc3c(c12)CCCCC3)NCc1ccco1, CSc1ccc(-c2nc3ncccn3c2Nc2ccc(C)c(C)c2)cc1, O=C(CNC(=O)c1ccccc1)N=Nc1c(O)[nH]c2ccc(Br)cc12, COc1cc(OC)cc(C(=O)OCn2nnc3ccccc3c2=O)c1, CC1(CCC#N)N=C(SCCC#N)N(c2ccccc2)C1=O (stereo not given), COc1ccc(NC(=O)Nc2sc3nc4n(c(=O)c3c2C)CCC(C)CC4)cc1OC (stereo not given), CC12CCC(=O)N1C(C(=O)Nc1nnc(SCc3ccc(F)cc3)s1)CS2 (stereo not given), Cc1ccc(-n2c(N)c(S(=O)(=O)c3ccccc3)c3nc4ccccc4nc32)cc1

Potency, active:
COc1ccc(NC(=O)C(c2ccc(C)cc2)N(C)C(=O)Cc2cccs2)cc1 (stereo not given) 22.4 µM and 12.6 µM, O=C(C1CCN(c2nnc(-n3cccc3)s2)CC1)N1CCc2ccccc2C1 35.5 µM, N/C(=N\OC(=O)CSc1ccccc1)c1cccc([N+](=O)[O-])c1 20 µM, CC(=O)Nc1cc(C(=O)NCc2ccc(C)cc2)ccc1Sc1ccc(C)cc1 20 µM, CCn1c2ccccc2c2cc(/C=C(/C#N)C(N)=S)ccc21 31.6 µM, COc1ccc(/C=C/C(=O)c2ccc(C)c([N+](=O)[O-])c2)cc1O 22.4 µM, Cc1cccn2c(=O)c(C=O)c(Cl)nc12 10 µM, Cc1ccc(Cl)c2sc(NC(=O)C3=COCCO3)nc12 11.2 µM, C/C=C/C1=CC(=O)C[C@H](c2ccc(Cl)cc2)C1 12.6 µM, OC(c1ccccc1)c1nc(-c2ccc3c(c2)OCO3)cs1 (stereo not given) 20 µM, Nc1c2c(nc3sc4c(c13)CCCC4)-c1ccccc1CC2 2.51 µM, CCOC(=O)c1c(-c2ccccc2)csc1NC(=O)c1nc(S(=O)(=O)CC)ncc1Cl 3.98 µM, Cc1ccc(C)c2c1cc(C)c1nnc(SCc3ccccn3)n12 11.2 µM, CCCn1c(=O)c(-c2ccccc2)c(O)c2ccccc21 22.4 µM

Potency, inconclusive:
Cc1ccccc1Nc1nc(N)nc(-c2oc3ccccc3c2C)n1 12.6 µM [activator, single point], CC1(C(=O)NCc2ccccc2Br)CCN1C(=O)CCc1ccc(Cl)cc1Cl (stereo not given) 35.5 µM [activator, single point], N#Cc1ccc(Nc2ccccc2)c(N)c1 22.4 µM [activator, single point], COc1cccc(/C=C/C(=O)OCC(=O)NC2CCCCCCC2)c1 35.5 µM [activator, single point], CNC[C@@H]1Oc2cc(Br)ccc2S(=O)(=O)N([C@H](C)CO)C[C@H]1C 35.5 µM [activator, partial curve, poor fit], COc1ccc(CCNC(=O)[C@H](C)N2C(=O)N3CCc4c([nH]c5ccccc45)[C@@]3(C)C2=O)cc1 31.6 µM [activator, single point], CCC1=Nc2cc(C(=O)NCc3ccco3)ccc2Sc2ccccc21 12.6 µM [activator, single point], O=C(NNc1ccccc1)c1ccccc1 17.8 µM [activator, partial curve, poor fit], COc1ccc(-c2cc(-c3ccc(OC)cc3)nc(-c3ccc4c(c3)NC(=O)CO4)c2)cc1 15.8 µM [activator, single point], COc1ccccc1-c1nnc(SCCOc2ccccc2C)o1 35.5 µM [activator, partial curve], O=C(CSc1ccc2c(c1)OCCO2)NC(=O)Cc1ccccc1 12.6 µM [activator, partial curve], CCCCC1CCC(C(=O)Nc2ccccc2N2CCOCC2)CC1 (stereo not given) 12.6 µM [activator, partial curve], CCOCCCNC(=O)c1ccc(NC(=O)N2CCCCc3ccccc32)cc1 1.12 µM [activator, full curve, poor fit], COc1ccc(NC(=O)c2cccc3c(-c4ccc(O)c(OC)c4)coc23)cc1 6.31 µM [activator, partial curve], Cc1sc2cc3c(c(C(=O)c4ccccc4)[n+]2c1C)-c1cccc2cccc-3c12 2.82 µM [activator, single point], Cc1nn(Cc2cccc(C(=O)NC3CCCCC3)c2)c(C)c1Cl 17.8 µM [activator, single point], CSc1ncc2c(n1)-c1cc(C)ccc1SC2 12.6 µM [activator, single point], CCn1ncc2c(OCc3ccc(C#N)cc3)cc(C)nc21 12.6 µM [activator, partial curve], Cc1ccc(NS(=O)(=O)c2c(C)nc3sccn3c2=O)c(C)c1 11.2 µM [activator, partial curve, poor fit], Cn1nc([N+](=O)[O-])nc1Sc1nnc(-c2ccccc2)o1 7.08 µM [activator, full curve, poor fit], CCCc1cc(C(=O)Nc2c(C)nn(Cc3ccc(C)cc3)c2C)no1 11.2 µM [activator, partial curve, poor fit], Cc1ccc(NC(=O)c2cc(-c3ccc(C)o3)nc3ccccc23)cc1 22.4 µM [activator, single point], COc1cccc(/C=C/C(=O)Nc2ccc3c(c2)OCCO3)c1OC 35.5 µM [activator, single point], COc1ccc(CCNC(=O)COC(=O)C23CC4CC(CC(Br)(C4)C2)C3)cc1 31.6 µM [activator, single point], COC(=O)c1ccc(NC(=O)CSc2ccccn2)cc1 7.08 µM [activator, partial curve], CCCCn1c(NC(=S)Nc2ccccc2)nc2ccccc21 22.4 µM [activator, single point], S=C(NCc1ccccn1)Nc1cccc(Cl)c1 12.6 µM [activator, single point], COc1ccc(OC)c(-c2csc(NC(=O)C3=COCCO3)n2)c1 22.4 µM [activator, partial curve], Fc1ccc(CO/N=C2\CCCc3nonc32)cc1 35.5 µM [activator, partial curve], O=C(CSc1nnc(-c2cccnc2)s1)Nc1ccnc2ccccc12 10 µM [activator, partial curve], CCOCCCNC(=O)c1cc2c(-c3ccc(OC)c(OC)c3)nn(C)c2s1 0.891 µM [activator, partial curve], CCOc1ccccc1N(CC(=O)N1CCOCC1)S(=O)(=O)c1ccc(SC)cc1 15.8 µM [activator, single point], COCCNC(=S)N1CCN(Cc2cccc(OC)c2)CC1 11.2 µM [activator, partial curve], CC(C)CNC(=O)CSc1nnc(-c2cccc(S(=O)(=O)N3CCCCC3)c2)o1 6.31 µM [activator, single point], CCN(CC)c1nc(-c2ccccc2)nc2ccccc12 28.2 µM [activator, single point], COn1c(SCc2ccc(Cl)cc2)nc2ccccc2c1=O 11.2 µM [activator, partial curve], COC(=O)NNC(=O)c1ccc(Cl)cc1Cl 15.8 µM [activator, partial curve], CCN(CC)S(=O)(=O)c1cc(OC)ccc1N=Nc1ccc(O)c2ncccc12 14.1 µM [activator, single point], O=C(N/N=C/c1cccnc1)c1cc(-c2ccccc2OCc2ccccc2)n[nH]1 11.2 µM [activator, partial curve]

Growth rescue (activation), inconclusive:
O=C1ON=C(c2ccccc2)/C1=C/c1ccco1 -91.8% [activator], COc1ccc(NC(=O)CN(C)C(=O)c2ccc3c(c2)OCCO3)cc1 30.1% [activator], Oc1cccc2ccc(/C=C/c3ccccc3Cl)nc12 -52.6% [activator]
